# What was measured:
# [1] = In vitro DAR-sensitive matrix stability (Octet, bio-layer interferometry); assay type: in vitro ADME; settings: average; 10 day incubation at 37° C.; 0.1 mg/mL in mouse, rat, cynomolgus monkey, human plasma and serum
# Experimental: Samples removed from each time point were transferred to −80° C. for storage. Analysis was performed using a label-free bio-layer interferometry assay. Matrix samples were diluted to 1:20 in 1×PBS containing 0.05% Tween-20 and 1% BSA (assay buffer). […] Negative control samples were 5% matrix-alone. Biotinylated mesothelin at 5 μg/mL in assay buffer was captured on SA streptavidin biosensor tips (300 sec; Pall-ForteBio), followed by capture of diluted stability samples and controls (300 sec). Payload was then quantitated by binding of rabbit-human chimeric anti-eribulin antibody 5E4 at 100 mg/mL. Association was monitored for 300 sec, at which point binding had reached equilibrium. Binding level at the end of dissociation phase (Req) was determined for each sample at 295 sec of association. Stability was determined by plotting percent Req relative to t0, where: percent Req=Reqtx/Reqt0[100] and tx=0-240 hours. 2.9 In Vitro Cytotoxicity Analysis
# 345A12-HC15-LC4-VCP-eribulin (DAR2) was analyzed for in vitro stability in mouse, rat, cynomolgus monkey, and human plasma and serum. ADC was incubated in matrix at 0.1 mg/mL for 1 week, and time points were removed after 1, 2, 3, 4, and 10 days. Analysis was done using a DAR-sensitive Octet (biolayer inferometry)-based assay as described in Section 2.3.1.
# [2] = Pharmacokinetics (total antibody and intact ADC, Gyros) in NCI-N87 tumor-bearing mice, dose titration (Example 5); assay type: in vivo, mouse; settings: 5 mg/kg to 25 mg/kg
# Experimental: PK analysis was performed using both an intact ADC assay and a total antibody assay. Total antibody refers to the sum total of all species, including conjugated and unconjugated species (i.e., DAR0+DAR1+DAR2+ . . . +DARn), whereas intact ADC refers to all conjugated species (i.e., DAR1+DAR2+ . . . +DARn). Total antibody assay used biotinylated mesothelin for capture. Intact ADC assay used biotinylated anti-eribulin 5E4 Fab fragment for capture and AlexaFluor647-labelled anti-human Fc for detection. Sample analysis was performed on a Gyros analyzer. Data analysis was performed in WatsonLIMS 7.4.1 and plotted in Microsoft Excel.
# [3] = system: human ovarian cancer OVCAR-3-A1-T1 xenograft; assay: Human ovarian cancer OVCAR-3-A1-T1 xenograft model; assay type: in vivo, mouse; settings: 5 mg/kg
# Experimental: Animals: Female NOD.CB17-SCID mice (Jackson Laboratory).
# 100 μL/mouse of the mixture was injected subcutaneously. […] 3 times weekly, beginning on day 3 post-implantation.
# [4] = DAR-sensitive stability assay in human plasma (Gyrolab); assay type: in vitro ADME; settings: 0.1 mg/mL, 37° C., up to 240 hours
# Source text: (§1) All samples were thawed to ambient temperature and diluted 1:100 for testing. A DAR-sensitive stability assay was developed as stepwise sandwich format on Gyrolab. Assay used biotinylated mesothelin for capture after blocking and sample binding, and Alexa Fluor 647 anti-eribulin 5E4 Fab or Alexa Fluor 647 anti-DM4 (Levena Biopharma) for detection.
# [5] = DAR-sensitive stability assay in mouse plasma (Gyrolab); assay type: in vitro ADME; settings: 0.1 mg/mL, 37° C., up to 240 hours
# Source text: as §1
# [6] = system: human mesothelioma PDX Meso7212; assay: Human mesothelioma PDX model Meso7212 (Example 17); assay type: in vivo, mouse; settings: 10 mg/kg single dose i.v.
# Experimental: Xenotransplantation: On day 0. Meso 7212 tumors were removed from the five donor mice under sterile conditions.
# Experimental procedure: After the xenotransplantation, the engraftment and the propagation of the tumor in the mice were controlled at least twice weekly by palpation. When the tumor was palpable, the measurements of tumor diameters were performed with a digital caliper (Mitutoyo).
# From the first treatment day onwards, tumor volumes and body weights were recorded twice weekly. The animal welfare was controlled twice daily.
# Treatment: All agents were administered intravenously as a single dose on the day of randomization. Animals in the control group were treated with DPBS in the same manner.
# [7] = system: human mesothelioma PDX Meso7212; settings: mouse, in vivo, 10 mg/kg
# [8] = system: human mesothelioma PDX Meso7212; assay: Human mesothelioma PDX model Meso7212 (Example 3); settings: Meso7212 (MV16071); single administration of 10 mg/kg
molecule,measurement,setting,value
"MORAb-109 (DAR2) (conjugate, non-natural residues) heavy: QVQLVESGGGVVQPGRSLRLSCAASGIDLSSYAMSWVRQAPGKGLEWIGVIDISGNRFYADWVKGRFTISRDNSKNTLYLQMSSLRAEDTAVYYCARVDSRAWGPFNLWGQGTLVTVSS[skipping human IgG1 constant region] light: DYQMTQSPSSLSASVGDRVTITCQASQSIFSYLAWYQQKPGKAPKLLIYDASDLASGVPSRFSGSGSGTDFTLTISSLQCEDAATYYCQQGYTRSDVDNAFGGGTKVEIKRTVAAPSVFIFPPSDEQLKSGTASVVCLLNNFYPREAKVQWKVDNALQSGNSQESVTEQDSKDSTYSLSSTLTLSKADYEKHKVYACEVTHQGLSSPVTKSFNRGEC",release of payload,[1],20%
same,exposure of ADC (AUC),[2],dose-dependent increases in AUC
same,anti-tumor effect,[3],tumor growth delay
same,stability in human plasma,[4],more stable than BAY 94-9343
same,stability in mouse plasma,[5],more stable than BAY 94-9343
same,anti-tumor effect,[6],tumor regression
same,body weight change,[7],No body weight loss
same,anti-tumor response,[8],durable and comparable anti-tumor responses

# Source: US12564641B2 (EISAI R&D MANAGEMENT CO., LTD., priority 2019, dated 2026)
